# Data reported in publication PMC4336329 (PLoS ONE, 2015).
# The campaign covered roughly 310,000 compounds. About 2,200 (0.71%) showed an effect of 50% or more. Effects have a minus sign here. The list shows a part of the results.
# Target: human ether-à-go-go-related gene (hERG) potassium channel (human, UniProt Q12809)
# Test: primary screen, population patch clamp on CHO cells stably expressing hERG
# Chain of human ether-à-go-go-related gene (hERG) potassium channel (Q12809 whole entry, looked up): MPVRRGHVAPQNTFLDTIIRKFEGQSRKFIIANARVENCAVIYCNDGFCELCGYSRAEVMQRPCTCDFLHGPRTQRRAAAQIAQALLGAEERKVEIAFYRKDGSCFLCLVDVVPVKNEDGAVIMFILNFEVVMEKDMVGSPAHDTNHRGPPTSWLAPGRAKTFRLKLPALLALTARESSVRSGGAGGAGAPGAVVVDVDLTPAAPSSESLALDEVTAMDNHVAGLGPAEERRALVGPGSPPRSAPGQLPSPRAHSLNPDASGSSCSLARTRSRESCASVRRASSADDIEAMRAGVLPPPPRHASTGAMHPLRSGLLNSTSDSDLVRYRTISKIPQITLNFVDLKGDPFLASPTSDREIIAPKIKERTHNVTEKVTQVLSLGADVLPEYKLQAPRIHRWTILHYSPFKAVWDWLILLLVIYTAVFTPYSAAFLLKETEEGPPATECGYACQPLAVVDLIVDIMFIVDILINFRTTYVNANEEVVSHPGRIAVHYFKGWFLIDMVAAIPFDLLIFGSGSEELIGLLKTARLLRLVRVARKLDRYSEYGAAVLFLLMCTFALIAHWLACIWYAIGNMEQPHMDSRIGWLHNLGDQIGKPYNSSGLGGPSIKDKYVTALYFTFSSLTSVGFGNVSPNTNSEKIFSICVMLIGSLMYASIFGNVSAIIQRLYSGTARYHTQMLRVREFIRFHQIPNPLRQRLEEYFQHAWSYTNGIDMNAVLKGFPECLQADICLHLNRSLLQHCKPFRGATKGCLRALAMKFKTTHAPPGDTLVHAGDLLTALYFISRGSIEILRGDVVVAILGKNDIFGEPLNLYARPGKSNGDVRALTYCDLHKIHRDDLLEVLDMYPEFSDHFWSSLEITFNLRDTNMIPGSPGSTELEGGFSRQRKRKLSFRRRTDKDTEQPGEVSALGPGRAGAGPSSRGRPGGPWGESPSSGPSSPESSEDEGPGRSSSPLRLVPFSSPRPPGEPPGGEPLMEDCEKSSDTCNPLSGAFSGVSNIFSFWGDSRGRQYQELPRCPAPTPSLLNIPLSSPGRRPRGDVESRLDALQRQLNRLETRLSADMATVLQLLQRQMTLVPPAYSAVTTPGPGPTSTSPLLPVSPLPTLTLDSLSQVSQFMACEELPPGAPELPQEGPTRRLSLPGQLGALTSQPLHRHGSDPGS
row,SMILES,"hERG current change (%, negative = inhibition) at 1uM"
1,O=C(OCC(=O)N1CCCc2ccccc21)c1cccc(S(=O)(=O)N2CCc3ccccc32)c1,-3.58%
2,C[C@H](NC(=O)c1ccccc1Cl)C(=O)OCC(=O)NNC(=O)c1cccs1,9.26%
3,Cc1ccc(NC(=O)CCn2cccc2)cc1C,20.7%
4,Cc1ccccc1OCC(=O)N(Cc1nc(-c2ccccc2)no1)C(C)C,-2.83%
5,NS(=O)(=O)c1ccc(NC(=S)Nc2cc(Cl)c(Cl)cc2Cl)cc1,14.7%
6,COc1ccc(CCn2c(=N)c(C(=O)NCc3ccco3)cc3c(=O)n4cccc(C)c4nc32)cc1,-76.6%
7,COc1ccc(C(C)=O)cc1CC(C(=O)c1ccc(C)c(C)c1)N(C)C (centres unmarked),5.03%
8,Nc1nc(SCC(=O)Nc2ccc(OC(F)(F)F)cc2)[nH]c(=O)c1NC(=O)c1ccc(Br)o1,17.1%
9,N#CC1=C(C2CC2)CC(c2ccccc2)C(C#N)=C1N (centres unmarked),4.98%
10,COc1ccc(NC(=O)C2CCC(N3C(=O)C4C5C=CC(C5)C4C3=O)CC2)cc1 (centres unmarked),-2.03%
11,Cc1[nH]nc2ncc(C(=O)c3ccccc3O)cc12,9.74%
12,CCCC(=O)Nc1ccc(C(=O)n2ccc(C)n2)cc1,5.13%
13,O=C(COc1ccc([N+](=O)[O-])cc1)Nc1ccc2c(c1)OCO2,1.09%
14,O=C(NCc1ccccc1)c1cccc(NC(=O)c2ccco2)c1,9.71%
15,CN1CC(=O)N(CCOc2ccccc2)C1=O,19.9%
16,CC1(C)Cc2c(C#N)c(NC3CCCCC3)nc(-c3ccco3)c2CO1,14.6%
17,Cc1ccc(C(=O)NCCOc2cccc3cccnc23)cc1Cl,1.83%
18,CC(C)COC(=O)N1CCCC1C(=O)Nc1nccs1 (centres unmarked),13.3%
19,COc1ccc(C(=O)Nc2ccc(N3CCCCC3)cc2)cc1Br,-2.66%
20,COc1cccc(NC(=O)C(C)NS(=O)(=O)c2ccc(Br)cc2)c1 (centres unmarked),-4.64%
21,COCc1ccc(CN2CCC(C(=O)Nc3cccc(-c4cscn4)c3)CC2)o1,8.14%
22,O=C1Nc2ccccc2C1=Nc1cccc(Cl)c1,22.3%

row,SMILES,"hERG current change (%, negative = inhibition) at 1uM"
1,Cc1noc(C)c1S(=O)(=O)N1CCCC(C(=O)Nc2ccc(Cl)cn2)C1 (centres unmarked),1.92%
2,O=C(CN1CCCCC1)Nc1ccc(C(F)(F)F)cc1Cl,11.8%
3,CC12CN3CC(C)(CN(C1)C3c1cccs1)C2 (centres unmarked),8.57%
4,CC(Oc1cc(F)ccc1[N+](=O)[O-])C(=O)Nc1ccc(S(=O)(=O)N2CCCC2)cc1 (centres unmarked),13.3%
5,O=C(C1=C[C@@H](c2ccccc2)C[C@@H](OCc2ccc(CO)cc2)O1)N1CCCCCCC1,-2.3%
6,Cc1c(Cl)c([N+](=O)[O-])nn1CCCC(=O)NCCc1ccccc1,5.41%
7,C=C[C@@]1(C)CC(=O)[C@]2(O)[C@@]3(C)[C@@H](O)CCC(C)(C)[C@@H]3[C@H](OC(C)=O)[C@H](O)[C@@]2(C)O1,12.6%
8,CCCn1c(N)c(Br)c(=O)[nH]c1=O,14.9%
9,S=C(c1c[nH]c2ccc(Br)cc12)N1CCOCC1,11.5%
10,O=C(NC(=S)Nn1cnc2c(cnn2-c2ccccc2)c1=O)c1ccc(Oc2ccccc2)cc1,13.5%
11,CC1CCCN(CC(O)COCc2ccccc2)C1.Cl (centres unmarked),10.6%
12,CN(Cc1ccccc1)C(=O)c1ccc(NC(=O)Cc2cccc(NC(=O)C3CCN(C(=O)C4CCCC4)CC3)c2)cc1,5.06%
13,C=CC(COCc1ccccc1)N(Cc1ccc(OC)cc1)S(=O)(=O)c1ccccc1Br (centres unmarked),1.46%
14,O=C(CNC(=O)C1CCCCC1)OCC(=O)c1ccc(F)cc1,3.13%
15,COc1cc(CNC(C)(C)CO)cc(Br)c1OCc1ccc(Cl)cc1Cl,-1.48%
16,O=C(CCc1nnc(CCC2CCCCC2)o1)NCc1ccon1,3.23%
17,O=C(Nc1ccccc1-c1nc2ccccc2[nH]1)c1ccc(N2C(=O)CCC2=O)cc1,9%
18,O=C(NCCc1ccccc1)/C(=C\c1ccc([N+](=O)[O-])cc1)NC(=O)c1ccc(Br)cc1,-8.48%
19,CCN(CC(=O)NCc1ccc(Cl)cc1)C(=O)CSc1ccc(F)cc1,-28.9%
20,COc1ccc(N2CCN(C(=O)CCc3nnc4ccc(N5CCOCC5)nn34)CC2)cc1,14%
21,COc1ccc(/C=N/NC(=O)c2ccc3nc[nH]c3c2)cc1,15.4%
22,CCN(CC)S(=O)(=O)c1ccc(O)c(C(=O)OCC(=O)N2c3ccccc3CC2C)c1 (centres unmarked),6.19%

row,SMILES,"hERG current change (%, negative = inhibition) at 1uM"
1,Cc1cc(C)c2c(N)c(C(=O)NN)sc2n1,14.5%
2,Cc1cccc(S(=O)(=O)NNC(=O)c2sc(C)nc2C)c1,6.08%
3,COc1ccc(N=C2NC(=O)CS2)c([N+](=O)[O-])c1,12%
4,Cc1cccc(C(=O)N2CCCC(CCC(=O)N3CCN(c4ccccn4)CC3)C2)c1C (centres unmarked),5.01%
5,CC(C)CCNC(=O)C1CCN(S(=O)(=O)c2ccc3c(c2)CC(C)N3C(=O)C2CCC2)CC1 (centres unmarked),3.47%
6,Cc1nc2ccc([N+](=O)[O-])cc2s1,15.3%
7,O=C(CCN1C(=O)c2ccccc2C1=O)OCn1nnc2ccccc2c1=O,18.9%
8,CC(=O)N(C)C1(c2nnnn2CCOC(=O)Nc2ccc(Cl)cc2)CCCCC1,-2.57%
9,CCOc1cccc(CN2CCC(N3CCC(C(=O)NCC4CCCO4)CC3)CC2)c1 (centres unmarked),8.9%
10,CCO/N=C(\N)c1[nH]ncc1Br,7.38%
11,COCCNc1nc(N)c([N+](=O)[O-])c(NCCO)n1,9.03%
12,CN(C)c1ccc(/C=N/Nc2nc3ccccc3o2)cc1,17.1%
13,O=c1c2ccccc2nc(/C=C/c2ccc(O)c(O)c2)n1-c1ccccc1,-3.02%
14,O=C(O)C(=O)O.OC(CNC1CCCc2ccccc21)COc1c(Cl)cccc1Cl (centres unmarked),-10.5%
15,COc1ccc(NC(=O)CSc2nnc(C3CC3)n2C)cc1S(=O)(=O)N1CCOCC1,11.5%
16,COc1ccc(NC(=O)CN2CCN(c3nc(-c4cccc(OC)c4)cs3)CC2)cc1,2.86%
17,O=C(CNC(=O)c1ccc2ccccc2c1)OCC(=O)N1CCN(S(=O)(=O)c2ccc3ccccc3c2)CC1,31%
18,CN1/C(=C/C(=O)CSc2ccccc2C(=O)O)C(C)(C)c2ccccc21,18%
19,CCOC(=O)C1=C(c2ccccc2)NC(=O)NC1c1ccsc1 (centres unmarked),20.4%
20,Cn1c(Cc2ccccc2)nnc1SCCC(=O)Nc1ccccc1,8.15%
21,CC1(C)Oc2ccc(C(=O)N3CCOCC3)cc2N(CC(=O)N2CCOCC2)C1=O,12.9%
22,COc1ccccc1CCNC(=O)C(=O)NCC1OCCN1S(=O)(=O)c1ccc(C)cc1 (centres unmarked),10.2%

row,SMILES,"hERG current change (%, negative = inhibition) at 1uM"
1,O=C(NC1CCN(Cc2ccccc2)CC1)C1CCN(c2nnc(-n3cccc3)s2)CC1,-28.2%
2,Cc1ccc(-c2nn(Cc3ccccc3)cc2/C=C/C(=O)O)cc1,1.95%
3,CO[C@@]1(NC(=O)C2SC(=C(C(N)=O)C(=O)O)S2)C(=O)N2C(C(=O)O)=C(CSc3nnnn3C)CS[C@@H]21 (some centres unmarked),12.4%
4,CC(=O)NS(=O)(=O)c1ccc(NC(=O)CN2C(=O)C3C4C=CC(C4)C3C2=O)cc1 (centres unmarked),8.74%
5,COc1cccc(NC(=O)CC2Oc3ccccc3NC2=O)c1 (centres unmarked),9.29%
6,O=C(NC1CCCC1)C(Cc1ccccc1)n1cccc1 (centres unmarked),8.73%
7,COc1cccc(NC(=O)CN(C)C(=O)c2cc(-c3ccco3)nc3ccccc23)c1,-11.6%
8,O=c1[nH]c(=S)[nH]c2nc(-c3ccccc3)cnc12,16.9%
9,CCCC1Cc2c(sc3ncnc(N)c23)CO1 (centres unmarked),6.79%
10,COC(=O)c1ccc(C(=O)OC)c(NC(=O)CSc2cccc[n+]2[O-])c1,8.22%
11,NC(=O)C1CCN(c2oc(-c3ccc(F)cc3)nc2S(=O)(=O)c2ccccc2)CC1,1.98%
12,O=C(CSCc1cnn(-c2ccccc2)c1-n1cccc1)N1CCN(Cc2ccccc2)CC1,-3.03%
13,CC(=O)N=C1SC2CS(=O)(=O)CC2N1c1c(Cl)cccc1Cl (centres unmarked),1.8%
14,Cc1ccccc1NC(=O)C1CC(=O)n2ncnc2N1 (centres unmarked),18.2%
15,O=C(O)C(=O)O.c1ccc(-c2ccc(OCCCNC3CCCC3)cc2)cc1,-54.9%
16,COc1cccc(NC(=O)N2CCCC2C(=O)NC2CC2)c1 (centres unmarked),0.311%
17,Cn1c(-c2cc3ccccc3oc2=O)nc2ccccc21,12.6%
18,O=C(COc1ccccc1Br)c1ccc(O)cc1O,9.21%
19,O=[N+]([O-])c1cccnc1S(=O)(=O)c1ccccc1,15.6%
20,COc1ccc(-c2nnc(SCC(=O)NCc3cccs3)n2C(C)C)cc1,-9.21%
